Details: CC50 (Alamar Blue) / EC50 (LCMV ELISA)
Description: Compound 1 passed this medicinal chemistry filter and was evaluated for potency. Compound potency was determined by evaluating inhibitory activity across a broad range of concentrations, again using the cell-based ELISA. Nonlinear regression was used to generate best-fit inhibition curves and to calculate a 50% effective concentration (EC50) equivalent to 80 nM. The selectivity or specificity of a given compound is typically expressed as a ratio of its cytotoxicity to its biological effect. A cell proliferation assay is used to calculate a 50% cytotoxicity concentration (CC50); the ratio of this value to the EC50 is referred to as the therapeutic index (T.I.=CC50/EC50). To determine cytotoxicity, a fluorimetric assay that quantifies reduction of resazurin (Alamar Blue) was employed (8).

Structure (SMILES): c1ccc2[nH]c(-c3nc4ccccc4[nH]3)nc2c1 [Compound 1, 1H, 1′H-[2,2′]Bibenzoimidazolyl]
- therapeutic index (T.I.=CC50/EC50): > 310

From US8623347B2 (priority 2008, dated 2014)
